Results as given in PubChem BioAssay AID1508642 (National Center for Advancing Translational Sciences (NCATS), 2021).
Among all 43,000 compounds or so, about 200 (0.47%) were called active. Another 12% or so got no clear call; they are omitted. Calls come from the whole dose curve; as a rule, active = well fitted cell-killing curve with a large enough effect; inconclusive = small, poorly fitted or top-dose-only effect, or effect the other way; inactive = flat fitted curve, though single readings scatter. The list shows a part of the results.

experiment: Cell viability qHTS assay in S16 Pmp22-F2sN cells; conditions: S16 Pmp22-F2sN Schwann cells (luciferase reporters placed in the Pmp22 gene) viability, CellTiter-Glo, 24 h; series mostly up to 57.5 µM; activity change, negative = cytotoxicity: at the top concentration; note: nearly all actives have a fitted effect of over 65% in size
Outline: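 Rat S16 Schwann reporter line, 24 h treatment with library compounds delivered at 23 nL per well. Cell viability by CellTiter-Glo luminescence.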
% is set by controls: 0 for no effect and ±100 for the full control effect; potency is the fitted concentration of half-maximal effect.

Structure (SMILES)	activity change, negative = cytotoxicity	Potency
COc1ccc(-c2nc3sc(CCNC(=O)C(=O)Nc4ccc(C)cc4C)c(C)n3n2)cc1	inactive: -11.9%	–
Cc1ccc(NC(=O)C2CCC(CNS(=O)(=O)c3cccc4nsnc34)CC2)c(C)c1 (configuration not stated)	inactive: 7.38%	–
Cc1ccc(C)c(Cn2c(C(C)NC(=O)c3ccccc3)nc3ccccc32)c1 (configuration not stated)	inactive: 1.96%	–
Cc1nc2ccc(S(=O)(=O)N(CC(=O)Nc3cccc(C)c3C)Cc3ccccc3)cc2s1	inactive: -6.67%	–
Cc1[nH]c2ccc(C(=O)NCCc3ccccc3Cl)cc2c1C	inactive: -20.4%	–
Cc1cccc(NC(=O)CN2C(=O)COc3ccc(S(=O)(=O)Nc4ccccc4)cc32)c1C	inactive: 5.26%	–
Cc1ccc(Cl)cc1N1CCN(S(=O)(=O)c2ccc3oc(=O)c4ncn(C)c4c3c2)CC1	inactive: -5.5%	–
Cc1ccccc1Cn1cc(NC(=O)c2cc(-c3ccc(Cl)cc3)on2)cn1	inactive: 12%	–
Cc1cccc(OCC(=O)NCC2(N3CCN(C)CC3)CCCCC2)c1	inactive: -0.124%	–
CCC1CN(C(=O)N2CCC(C(=O)NCc3ccc(C)o3)CC2)c2ccccc2O1 (configuration not stated)	inactive: 1.81%	–
COc1ccc(Nc2cc(C(=O)NCc3ccccc3)c3ccccc3n2)cc1	inactive: 11.3%	–
CCCS(=O)(=O)N1CC(=O)N(c2ccccc2C)C(C)(C(=O)NC2CCCCC2)C1 (configuration not stated)	inactive: -0.945%	–
CC(C)OCCCn1c(=O)c2ccccc2n2c(-c3ccc(F)c(F)c3)nnc12	inactive: -2.35%	–
Cc1ccc(S(=O)(=O)c2nnn3c2nc(NCc2ccc(F)cc2)c2sccc23)cc1C	inactive: 10.1%	–
CCOC(=O)c1cccc(NC(=O)C2(S(=O)(=O)c3ccc(C)cc3)CC2)c1	inactive: -3.21%	–
COc1cccc(C(=O)Nc2ccc(-c3nc4ccc(C)cc4s3)cc2)c1OC	inactive: -2.72%	–
COc1cn(CC(=O)Nc2ccc(C)cc2C)c(CN2CCCCC2)cc1=O	inactive: 5.56%	–
CCOc1ccc(C2c3c(oc4ccccc4c3=O)C(=O)N2Cc2ccc3c(c2)OCO3)cc1 (configuration not stated)	inactive: 1.98%	–
Cc1ccc(Nc2c(-c3ccc(N4CCOCC4)cc3)nc3ccc(Cl)cn23)cc1	inactive: 0.466%	–
Cc1cc2c(cc1S(=O)(=O)N1CCC(C(N)=O)CC1)OCC(=O)N2	inactive: 6.95%	–
Cc1cc(C)c(NC(=O)Cn2nnc(-c3nc(-c4ccncc4)no3)c2N)c(C)c1	inactive: 0.194%	–
CC(=O)C1=C(c2ccc(C)cc2)N(C(C)=O)n2c(nnc2-c2ccccc2)S1	inactive: -0.993%	–
COc1ccc(S(=O)(=O)NCC(c2ccc(N(C)C)cc2)N2CCCC2)cc1F (configuration not stated)	inactive: 3.74%	–

Structure (SMILES)	activity change, negative = cytotoxicity	Potency
CCOc1cccc(C2c3c(oc4ccc(F)cc4c3=O)C(=O)N2CCOC)c1 (configuration not stated)	inactive: 0.974%	–
CCCNC(=O)C1CCC(Cn2c(=O)c3sccc3n(CC(=O)N3CCCC(C)C3)c2=O)CC1 (configuration not stated)	inactive: 7.67%	–
O=C(O)c1cccc(NC(=O)c2cccc(S(=O)(=O)Nc3cccc(F)c3)c2)c1	inactive: 3.73%	–
Cc1ccc(N2CCN(c3nc4ccccc4n4nnnc34)CC2)c(C)c1	inactive: 11.8%	–
COc1cccc(C(=O)Nc2ccccc2SCc2cc(=O)c3cccc(C)c3[nH]2)c1	inactive: 11.1%	–
Cc1cc(C)cc(NC(=O)c2cc(S(=O)(=O)N3CCOCC3)cn2C)c1	inactive: -6.18%	–
Cc1ccc(NC(=O)C2CCN(c3ncccn3)CC2)cc1F	inactive: 8.19%	–
COc1ccccc1OCCn1c(NC(=O)c2ccccc2)nc2ccccc21	inactive: -4.64%	–
Cc1ccc(-n2c(SCC(N)=O)nc3c(oc4ccccc43)c2=O)cc1	inactive: 3.49%	–
Cc1ccc(CCNC(=O)c2ccc(Cn3c(=O)c4cccn4c4cccnc43)cc2)cc1	inactive: -3.52%	–
CCn1c(CNC(=O)C23CC4CC(CC(C4)C2)C3)nnc1SCC(=O)Nc1ccc(OC)cc1	inactive: 9.9%	–
O=C(COc1cccc(Cl)c1)N1CCC(c2nc3ccccc3s2)CC1	inactive: -0.449%	–
CCOc1ccccc1NC(=O)C(C)n1nnc2sc3c(c2c1=O)CCCC3 (configuration not stated)	inactive: 0.597%	–
CCC12CN3CC(C)(CN(C1)C3c1c[nH]c3ccc(OC)cc13)C2=O (configuration not stated)	inactive: 8.39%	–
Cc1ccccc1NC(=O)Cn1c(=O)n(CCC(=O)NCc2ccc3c(c2)OCO3)c(=O)c2sccc21	inactive: 4.56%	–
CC(=O)N1CCc2cc(CNS(=O)(=O)c3ccc(C(C)(C)C)cc3)ccc21	inactive: 0.381%	–
O=C1CN(C(=O)c2ccc(S(=O)(=O)N3CCCCC3)cc2)C(c2ccc(F)cc2)c2cc(Br)ccc2N1 (configuration not stated)	inactive: -16.5%	–
CCN(CC)C(=O)c1sc2c(c1C)c(=O)n(-c1ccc(C)c(C)c1)c(=O)n2Cc1cccc(Cl)c1	inactive: 15.2%	–
CCOC(=O)C1CCCN(C(=O)CCS(=O)(=O)c2cc3c(cc2Cl)NC(=O)CO3)C1 (configuration not stated)	inactive: 26.3%	–
CCC(Sc1nc2cc3c(cc2c(=O)n1CCCC(=O)NCc1ccc(OC)cc1)OCO3)C(=O)NCCCOC (configuration not stated)	inactive: -12.9%	–
Cc1ccc(OCC(=O)Nc2ccc3nc(SCC(=O)N4CCOCC4)sc3c2)cc1C	inactive: -1.65%	–
Cc1ccc2cccc(NC(=O)c3ccc(C#N)cc3F)c2n1	inactive: 8.64%	–
Cc1ccccc1C(=O)NC1(C(F)(F)F)N=C(c2ccccc2)N(Cc2ccccc2)C1=O (configuration not stated)	inactive: -14.1%	–

Structure (SMILES)	activity change, negative = cytotoxicity	Potency
COc1cccc(-c2cc(C(F)(F)F)n3nc(C)c(-c4ccccc4)c3n2)c1	inactive: 19.3%	–
CCn1ccc2cc(S(=O)(=O)N3CCCN(C(=O)NCC(=O)OC)CC3)ccc21	inactive: -1.63%	–
Cc1ccc2nc(COc3cccc(NC(=O)c4cccc(Cl)c4)c3)cc(=O)n2c1	inactive: 20.5%	–
Cc1cc(C)c(S(=O)(=O)NCc2csc(-c3ccccc3)n2)c(C)c1	inactive: -9.21%	–
O=C(COc1ccccc1[N+](=O)[O-])Nc1cc(-c2nc3cc(Cl)ccc3o2)ccc1Cl	inactive: 12.9%	–
COC(=O)c1ccc(Oc2nc3c(c(=O)n(C)c(=O)n3C)n2C(C)C)cc1	inactive: 3.87%	–
CCc1ccccc1N(C)C(=O)c1nn(C)c2c1CSc1ccccc1-2	inactive: 13.9%	–
CCCCNC(=O)CSc1nc2cc3c(cc2c(=O)n1CCCCCC(=O)NCCc1ccc(OC)c(OC)c1)OCO3	inactive: 2.55%	–
Cc1ccc2nc(N3CCC(C(=O)NCc4ccc(F)cc4)CC3)[nH]c2c1	inactive: 19.4%	–
CCCCCC(=O)N(c1ccc(OCC)cc1)S(=O)(=O)c1ccc2c(c1)n(C)c(=O)n2C	inactive: -4.32%	–
Cc1ccc(CCNC(=O)c2ccc(CS(=O)(=O)Cc3cccc(C)c3)o2)cc1	inactive: 20.4%	–
Cc1ccc(NC(=O)Cn2cc3c(n2)CCC(C)C3)cc1C (configuration not stated)	inactive: 7.26%	–
COc1ccc(Cn2ccc3nc(C)c(C(=O)N4CCN(c5ccccc5F)CC4)cc3c2=O)cc1	inactive: 6.9%	–
CSc1ccc(CNC(=O)CN2C(=O)C3CCCCN3c3ccc(C(=O)N4CCCC4)cc32)cc1 (configuration not stated)	inactive: -16.3%	–
Cn1ccc2c(OCC(=O)Nc3ccc([N+](=O)[O-])cc3)cccc2c1=O	inactive: 6.46%	–
Cc1cccc(OCC(=O)Nc2ccc3oc(-c4ccccc4F)nc3c2)c1	inactive: 13.1%	–
COC(=O)c1cc2sc(C)cc2n1CC(=O)Nc1cccc(SC)c1	inactive: 3.81%	–
O=S(=O)(NCc1nc2cccnc2n1Cc1ccc(F)cc1)c1ccc(Cl)s1	inactive: -8.36%	–
COc1ccc(-c2nc3cc(C(C)C)ccc3o2)cc1NC(=O)c1ccc(C)c(Cl)c1	inactive: -2.06%	–
CCc1ccc(NC(=O)C2CCN(S(=O)(=O)c3c(C)noc3/C=C/c3ccco3)CC2)cc1	inactive: 7.65%	–
FC(F)(F)c1ccc(-c2noc(-c3ccccc3Br)n2)cc1	inactive: -17.8%	–
CCOC(=O)C1CCN(C(=O)c2ccc3c(c2)sc2nc(-c4ccc(C)cc4)cn23)CC1	inactive: -20%	–
COc1ccc(OC)c(/C=C(\C#N)c2nc3ccccc3c(=O)[nH]2)c1	inactive: 1%	–

Structure (SMILES)	activity change, negative = cytotoxicity	Potency
O=C(CCC(=O)c1ccccc1)Nc1ccc(F)c(Cl)c1	inactive: 5.24%	–
COc1ccc(CCN2CC(C(=O)NCCc3ccccc3)CC2=O)cc1OC (configuration not stated)	inactive: 25%	–
Cc1ccc(C)c(S(=O)(=O)NCCc2csc(-c3ccc(Cl)cc3)n2)c1	inactive: -3.44%	–
Cc1cccc(NC(=O)C2CCCN(S(=O)(=O)c3ccc4c(c3)oc(=O)n4C)C2)c1 (configuration not stated)	inactive: 2.18%	–
O=S(=O)(NCCS(=O)(=O)N1CCN(c2ccccc2)CC1)c1ccc(Cl)cc1	inactive: -1.54%	–
Cc1sc2c(c1C)c(=O)n(CCc1ccccc1)c(=O)n2Cc1ccc(F)cc1	inactive: -29.6%	–
O=C(Nc1ccc(Cl)cc1)c1cc2nc(-c3ccc4c(c3)OCO4)cc(C(F)(F)F)n2n1	inactive: -0.956%	–
CCn1c(=O)n(-c2cccc(Cl)c2)c(=O)c2sc3ccccc3c21	inactive: 1.66%	–
CC(=O)c1ccc(N2CCN(C(=O)c3cc4ccc5cccnc5c4[nH]3)CC2)cc1	inactive: 12%	–
COc1ccc(C(=O)Nc2ccccc2-c2nc(-c3ccc(OC)cc3)no2)cc1	inactive: 1.27%	–
CCOC(=O)c1ccc2c(c1)[C@@H]1C=CC[C@@H]1[C@H](c1cccc(OC)c1OC)N2	inactive: -4.96%	–
Cc1cc(C)c2sc(N(Cc3cccnc3)C(=O)CCOc3ccccc3)nc2c1	inactive: -16.7%	–
COc1cccc(CNC(=O)CSC2=Nc3ccccc3C3=NC(C)C(=O)N23)c1OC (configuration not stated)	inactive: -2.83%	–
CCOc1ccc(NC(=O)Cn2c(=O)n(CCCC(=O)NCc3ccc4c(c3)OCO4)c(=O)c3ccccc32)cc1	inactive: 2.4%	–
Cc1ccc(CSc2ncc(Cl)c(C(=O)Oc3ccc(F)cc3)n2)cc1	inactive: 3.79%	–
Cc1ccc(-n2nc3ccc(NC(=O)Cc4ccc(Cl)cc4)cc3n2)cc1	inactive: 27.8%	–
CCOC(=O)c1c(NC(=O)C(C)Sc2cn(CCNC(=O)c3ccccc3OC)c3ccccc23)sc2c1CCC2 (configuration not stated)	inactive: -1.28%	–
COC(=O)c1sc2cccc(F)c2c1S(=O)(=O)NCc1ccc(Cl)cc1	inactive: 1.34%	–
CCOC(=O)COc1ccc(CC)cc1C(=O)c1ccn2nc(-c3ccc(Cl)cc3)cc2n1	inactive: 23.3%	–
O=C(c1ccc2c(c1)N(Cc1ccc(F)cc1)C(=O)c1ccccc1S2(=O)=O)N1CCN(c2ccccn2)CC1	inactive: -6.81%	–
COc1ccccc1CNC(=O)c1cnc2c(-c3ccccc3)c(C)nn2c1C	inactive: 3.78%	–
CCCCS(=O)(=O)c1oc(-c2ccc(F)cc2)nc1S(=O)(=O)c1ccccc1	–	active: 4.47 µM
Fc1ccc(-c2cc(C(F)(F)F)nc(NCc3ccccc3)n2)cc1	inactive: 9.54%	–

Structure (SMILES)	activity change, negative = cytotoxicity	Potency
O=C(NCc1cccc(F)c1)c1ccc2nc(N3CCCCC3)sc2c1	inactive: -1.7%	–
CCOC(=O)C1CCCN(S(=O)(=O)c2cc3c(cc2C)NC(=O)CO3)C1 (configuration not stated)	inactive: 6.79%	–
Cc1ccc(OCC(=O)Nc2ccc3nc(SCC(N)=O)sc3c2)cc1	inactive: -0.988%	–
COc1ccc(Cn2c(=O)c3oc4ccccc4c3n(Cc3cccc(F)c3)c2=O)cc1	inactive: -7.72%	–
O=C(CSc1nc2c([nH]c3ccccc32)c(=O)n1-c1ccc(F)cc1)NCc1ccco1	inactive: 4.41%	–
CC1=C(C(=O)Nc2cc(Cl)ccc2C)C(c2ccco2)n2ncnc2N1 (configuration not stated)	inactive: 2.47%	–
CCSc1nnc2c(n1)OC(c1sccc1C)N(C(C)=O)c1ccccc1-2 (configuration not stated)	inactive: -11.8%	–
COC(=O)c1c(C)oc2ccc(N(C(=O)Oc3ccccc3)S(=O)(=O)c3ccc(C(C)(C)C)cc3)cc12	inactive: -20.6%	–
Cc1c(C)n(C)c2ccc(C(=O)NCCc3ccc(Cl)cc3)cc12	inactive: -0.243%	–
Cc1ccc(NC(=O)C2CCCN(S(=O)(=O)c3c(C)n[nH]c3C)C2)cc1Cl (configuration not stated)	inactive: -18.9%	–
Cc1ccc(C2C=C(c3ccc(F)cc3)Nc3nc(CCCO)nn32)cc1 (configuration not stated)	inactive: 0.437%	–
CCOc1ccc(C(=O)c2cn(Cc3ccccc3)c3c(F)cc(F)cc3c2=O)cc1	inactive: -5.06%	–
COc1ccc(OC)c(NC(=O)c2cnc(N3CCCC3)nc2C)c1	inactive: -0.445%	–
Cc1nn(-c2ccc(F)cc2)c(-n2cccc2)c1C(=O)N1CCN(c2ccccc2F)CC1	inactive: 3.79%	–
Cc1c(C(=O)Nc2ccc(F)c(F)c2)oc2ccc(S(=O)(=O)N3CCC4(CC3)OCCO4)cc12	inactive: 1.89%	–
O=C(Nc1c(-c2ccc(F)cc2)nc2ccccn12)c1cccc(F)c1	inactive: -4.51%	–
CC(=O)Nc1ccc(NS(=O)(=O)c2ccc(Cl)s2)cc1	inactive: -4.02%	–
COc1ccccc1CNC(=O)CN(c1ccc(C)cc1)S(=O)(=O)c1c(C)noc1C	inactive: 6.81%	–
O=C(CN1C(=O)CCc2cc(S(=O)(=O)N3CCOCC3)ccc21)NCc1ccccc1Cl	inactive: 4.78%	–
CCCOc1ccc(NC(=O)CC2C(=O)N(c3ccc(C)cc3)C(=O)N2C2CCCC2)cc1 (configuration not stated)	inactive: -0.0118%	–
